Experimental findings from PubChem BioAssay AID488969 (Vanderbilt High Throughput Screening Facility, 2010) are described below.

In all, about 110,000 compounds were measured (“z-score”: median about -0.1, highest 2% from about 2 on). The list shows a part of the results. Calls of active or inactive are those of the source.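 How the source made its calls: active means z-score in the third read window above 3 or below -3; inactive means the rest.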

For the assay, the target named is Metabotropic glutamate receptor 8 (Rattus norvegicus) (UniProt P70579). The experiment in a line: rat mGluR8 modulators via GIRK flux, primary screen, cell-based, thallium flux, HTS (AID 488969). Particulars: HEK293 rat mGluR8, GIRK (G protein-gated inwardly rectifying potassium channel) thallium flux, FluoZin2; at 10 µM; stronger effect = higher value; submaximal glutamate (EC20) added with thallium.
Sequence of UniProt P70579 (P70579 whole entry, looked up): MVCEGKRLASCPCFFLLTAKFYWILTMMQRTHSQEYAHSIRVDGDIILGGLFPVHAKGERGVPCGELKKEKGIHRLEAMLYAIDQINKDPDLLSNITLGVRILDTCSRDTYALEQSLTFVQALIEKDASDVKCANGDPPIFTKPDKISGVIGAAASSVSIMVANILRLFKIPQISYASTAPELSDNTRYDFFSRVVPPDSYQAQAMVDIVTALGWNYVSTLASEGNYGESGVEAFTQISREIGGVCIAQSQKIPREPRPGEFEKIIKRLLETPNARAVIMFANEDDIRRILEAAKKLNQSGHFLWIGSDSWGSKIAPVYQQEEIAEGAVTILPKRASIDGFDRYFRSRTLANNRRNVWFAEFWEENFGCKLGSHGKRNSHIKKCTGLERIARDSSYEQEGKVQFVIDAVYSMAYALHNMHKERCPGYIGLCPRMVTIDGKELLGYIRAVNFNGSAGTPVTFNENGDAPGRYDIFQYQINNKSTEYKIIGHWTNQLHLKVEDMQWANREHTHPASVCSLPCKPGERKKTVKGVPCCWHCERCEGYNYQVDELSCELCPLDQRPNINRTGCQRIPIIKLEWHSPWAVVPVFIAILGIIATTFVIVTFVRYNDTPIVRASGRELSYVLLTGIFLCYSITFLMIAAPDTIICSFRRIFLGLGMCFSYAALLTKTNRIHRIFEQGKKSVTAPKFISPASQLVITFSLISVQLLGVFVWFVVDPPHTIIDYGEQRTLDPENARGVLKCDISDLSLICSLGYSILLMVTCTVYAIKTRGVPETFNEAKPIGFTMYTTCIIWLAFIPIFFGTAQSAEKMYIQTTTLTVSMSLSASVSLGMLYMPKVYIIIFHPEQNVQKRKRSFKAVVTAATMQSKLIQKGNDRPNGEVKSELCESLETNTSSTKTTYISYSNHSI
Compound `O=C(c1ccc(C(=O)N2CCCc3ccccc32)s1)N1CCCc2ccccc21` showed a z-score of 0.715.

Consider `CCCCOc1ccc(C2C3CN(C(=O)OCC)CC=C3C(C#N)=C(N)C2(C#N)C#N)cc1OC` (stereo unspecified), for which the z-score was -0.6.

Take `FCCCOc1ccc(-c2nccc(-c3ccc(Cl)cc3)n2)cc1`: the z-score was -0.0154.

Compound `Cc1cccc(NC(=S)NCC(c2cccnc2)N(C)C)c1` (stereo unspecified) yielded a z-score of 0.286.

For `Cc1ccc(OCC(=O)N/N=C/C=C/c2ccco2)cc1C`, the z-score was -0.222.

As to `Cc1cc(NC(=O)CSc2ccc3nnc(-c4ccccn4)n3n2)no1`, the z-score was -0.369.

For `CCOc1ccc(C(C)=O)cc1N1C(=O)C2C3C=CC(C3)C2C1=O` (stereo unspecified), the z-score is -0.533.

The compound `C=C(C)Cn1c(COc2ccccc2)nnc1SCC(=O)O` had a z-score of 0.875.

Take `O=C(COc1ccccc1)NCCSc1ccccc1`: the z-score amounted to 0.0028.

Turning to `CCOC(=O)C1=C(C(C)=O)C(c2cccnc2)C(C#N)=C(N)O1` (stereo unspecified), the z-score came out at 0.0356.

As for `Cc1cc2nc(C)n(CCCNC(=O)Nc3cccc4ccccc34)c2cc1C`, the z-score is -0.0533.

Consider `CCOc1cc(C(=O)NC(C)c2ccncc2)cc(OCC)c1OCC` (stereo unspecified), for which the z-score was found to be 0.0433.

In the case of `CCC1Sc2ccccc2N(CC(=O)NCc2ccccc2OC)C1=O` (stereo unspecified), the z-score was -0.286.

The compound `c1ccc(CNc2nc3ccccc3n3cnnc23)nc1` yielded a z-score of 0.803.

`Cc1cccc2sc(N(CCN(C)C)C(=O)c3cc(Cl)sc3Cl)nc12`: the z-score is -0.0963.

Consider `Cc1ccc(OCCN2CCN(C)CC2)c([N+](=O)[O-])c1`, for which the z-score is -0.333.

For the compound `CC1(C)CCCC2=C1CC1C(=O)N(O)C(=O)C1C2` (stereo unspecified), the z-score was -0.385.

For the compound `CC(C)OC(=O)C1=C2SCC(=O)N2C(N)=C(C#N)C1`, the z-score is -0.00665.

With `CC(C)CC(=O)NCc1ccc(F)cc1`, the z-score is -0.107.

For the compound `COC(=O)c1sc(NC(=O)COc2cccc3ccccc23)nc1C`, the z-score is -0.0727.

Compound `COc1ccc(CNC(=O)c2sc3nc4c(c(C(F)(F)F)c3c2N)CCC4)cc1OC` showed a z-score of 0.382.

Turning to `CCO/C=C/C(=O)N(C)CCC#N`, the z-score was -0.097.

As to `Cc1nc(CN2CCCC2=NC#N)n(-c2ccccc2)n1`, the z-score is 1.36.

In turn, `c1ccc(N=P(N2CCOCC2)(N2CCOCC2)N2CCOCC2)cc1` registered a z-score of 0.159.

Consider `COc1ccc(C2=CSC(/N=C/c3ccc(F)cc3)=NN2)cc1`, for which the z-score came out at 0.278.

With `O=C(CSc1ccc2c(c1)OCCO2)NCCc1ccc(Cl)cc1Cl`, the z-score was -0.245.

Consider `O=C(NCc1cccs1)c1cccnc1C(=O)O`, for which the z-score was active: 5.74.

Turning to `Cc1ccc(Cn2ccc(-c3cnc(-c4ccccc4)s3)n2)cc1`, the z-score is -0.462.

In the case of `COC(=O)NCc1ccc(S(=O)(=O)N2CCOCC2)cc1`, the z-score stood at 0.235.

Consider `O=C(NC(=S)Nc1cc(Cl)ccc1N1CCOCC1)c1ccc(-c2cccc(Cl)c2)o1`, for which the z-score is -0.0121.

Compound `CCc1nc(C)cn1S(=O)(=O)c1cc(C)c(OC)c(C)c1C` gave a z-score of 0.091.

As for `Cc1cc(NC(=O)CCC(=O)N(c2ccccc2)C2(C(=O)NC3CCCCC3)CCCC2)no1`, the z-score is -1.15.

In the case of `CCOC(=O)c1sc(NC(=O)COc2ncnc3ccccc23)c(C(=O)OCC)c1C`, the z-score was -0.152.

On to `COc1ccc(NS(=O)(=O)c2ccc(NS(=O)(=O)c3ccc(SC)cc3)cc2)c(OC)c1`, for which the z-score is -0.182.

Consider `CCN(CC)CCNS(=O)(=O)c1ccc(OC)c(Br)c1`, for which the z-score was -0.27.

As for `COc1cc(OC)cc(C(=O)N[C@H](C(=O)NC23CC4CC(CC(C4)C2)C3)C(C)C)c1`, the z-score is -0.138.

Regarding `COc1cc(Cl)c(C)cc1NC(=O)COC(=O)c1cc(SC)ccc1Cl`, the z-score is -0.239.

On to `COc1cccc(NC(=O)CSC2=C(C#N)C(c3ccco3)C3=C(CCCC3=O)N2)c1` (stereo unspecified), for which the z-score was -2.29.

`CC(C)C(=O)Nc1ccc2c3c(cccc13)CC2`: the z-score is -0.101.

`CCCCNc1oc(-c2cccs2)nc1S(=O)(=O)c1ccccc1` returned a z-score of 1.05.

`Cc1ccc(CNC(=O)COC(=O)c2cc3c(s2)CCC(C)C3)cc1` (stereo unspecified) showed a z-score of 0.0313.

Consider `Cc1ccc(NC(=O)N(Cc2cc3cc(C)cc(C)c3[nH]c2=O)CC2COCCO2)cc1` (stereo unspecified), for which the z-score is -0.489.

As to `Cc1ccc(CCC2C3=C(CCCC3=O)OC3=C2C(=O)CCC3)cc1`, the z-score was -0.591.

As to `O=C(COC(=O)c1ccc2c(c1)C(=O)N(CCc1ccccc1)C2=O)Nc1ccc(OC(F)F)cc1`, the z-score was -0.206.

Regarding `COCCNC(=O)c1nc2c(nnn2Cc2cc(C)ccc2C)c(=O)[nH]1`, the z-score was -0.274.

Compound `CC(=O)c1cc(F)c(N2CCCC2)cc1C` registered a z-score of 1.93.

Regarding `CCOc1ccc(NC(=O)CN(Cc2ccccc2)S(C)(=O)=O)cc1`, the z-score was -0.0617.

Regarding `O=C(O)c1ccc(N2C(=O)c3cccc(Oc4ccc(Cl)cc4)c3C2=O)cc1`, the z-score was 0.79.

As to `O=C1COc2ccc(C(=O)c3ccccc3)cc2CN1`, the z-score was -0.0166.

For `COc1ccc(N/C(C)=C/C(=O)c2ccccc2)cc1`, the z-score is -0.252.

`CCc1nnc(NC(=O)CSc2nnnn2C)s1` returned a z-score of 1.15.

For `c1csc(Cn2c(-c3cccs3)nc3ccccc32)c1`, the z-score is -1.65.

For the compound `Cc1ccc(CCN2CC(C(=O)NC3CCCC3)CC2=O)cc1` (stereo unspecified), the z-score was found to be 0.626.

Consider `O=[N+]([O-])c1cccc(C(=Nc2ccccc2)NO)c1`, for which the z-score was -0.0036.

Turning to `O=C(NCc1ccccc1)C1CCN(S(=O)(=O)c2cccc3cccnc23)CC1`, the z-score was -0.478.

`CCCCC(=O)N(c1ccc(C)c(C)c1)C1C=CS(=O)(=O)C1` (stereo unspecified): the z-score came out at 0.0839.

For `CC(=NC1CC1)C1=C(O)c2ccccc2C1=O`, the z-score was -0.0848.

For the compound `CCc1nc(SCC(=O)O)c(C#N)cc1C`, the z-score is -0.171.

For the compound `O=C(COc1ccc(Br)cc1)N/N=C1\SCC(=O)N1c1ccc(F)cc1`, the z-score was 0.0551.

For the compound `Cc1nc(-c2ccc(S(=O)(=O)N3CCCCCC3)cc2)cs1`, the z-score is 0.287.

`O=C(CCNS(=O)(=O)c1ccc(Br)s1)Nc1ccc(Cl)cc1`: the z-score is -0.0218.

On to `Cc1sc2ncnc(SCC(=O)N3CCC(c4noc5ccc(F)cc45)CC3)c2c1C`, for which the z-score was 0.0389.

With `CN(C)S(=O)(=O)c1ccc(NC(=O)N2CCN(c3ccccc3Cl)CC2)cc1`, the z-score is -0.0667.

In the case of `CS(=O)(=O)CCC(C(=O)OCC(=O)c1ccc(Cl)cc1)N1C(=O)c2ccccc2C1=O` (stereo unspecified), the z-score is -0.0679.

For `CC(C)(C)c1ccc(C2(C)NC(=O)N(CC(=O)c3ccc[nH]3)C2=O)cc1` (stereo unspecified), the z-score is -0.552.

For `COc1cc(/C=C/C(=O)OCC(=O)c2c[nH]c3ccccc23)ccc1OC(F)F`, the z-score is -0.0741.

`CC(C)OC(=O)c1cccnc1N1CCN(c2ccc(F)cc2)CC1`: the z-score is -0.216.

Regarding `O=C(NCc1ccccc1)C1CCC1`, the z-score was -0.0348.

The compound `CCc1nc2c(nnn2Cc2ccc(F)cc2)c(=O)[nH]1` had a z-score of 0.331.

`CCOC(=O)Cc1csc(NC(=O)c2ccc(S(=O)(=O)N3CCCC3)cc2)n1` yielded a z-score of 0.525.

Take `C=CCNc1cc(C)oc(=O)c1C(=O)CCC`: the z-score was -0.519.

`CCc1ccc(-c2nc(-c3ccncc3)no2)cc1` registered a z-score of 2.31.

With `CCN1CCN(C2=C(Cl)C(=O)N(Cc3ccccc3)C2=O)CC1`, the z-score is -0.191.

Turning to `Cc1c(CNC(=O)c2cnn3c2NC(c2ccccc2)CC3C(F)(F)F)cnn1C` (stereo unspecified), the z-score is -0.867.

In turn, `COc1ccc(Cc2nc3ccccc3n2CC(=O)N/N=C/c2ccc(O)cc2)cc1OC` returned a z-score of 0.0209.

`CCCOc1nc2c(c(=O)n(C)c(=O)n2C)n1CC` showed a z-score of 0.0437.

In the case of `COc1cccc(-n2c(=O)[nH]cc(C(=O)Nc3ccc(NC(C)=O)cc3)c2=O)c1`, the z-score is -0.503.

Take `CC(C)CN(CC(C)C)c1nnc(NC(=O)Cn2c(=O)oc3ccccc32)s1`: the z-score is -0.241.

On to `Cc1ccc(Oc2cc(C#N)c(C#N)cc2-n2nnc3ccccc32)cc1C`, for which the z-score was found to be 0.332.

Compound `Cc1cc(C(=O)Nc2cccnc2Cl)on1` came in with a z-score of 0.294.

On to `O=C(C1CCN(Cc2ccc(F)cc2)CC1)N(CCO)Cc1ccccc1`, for which the z-score was -0.0919.

Take `CCc1ccc(NC(=O)c2ccc(C3SCC(=O)N3CCc3ccccc3)cc2)cc1` (stereo unspecified): the z-score is -0.617.

Consider `O=C(c1ccco1)c1cn[nH]c1-c1ccc(Cl)cc1O`, for which the z-score amounted to 0.507.

`COc1ccccc1NC(=O)c1csc(-n2nc(C)cc2C(F)(F)F)n1`: the z-score is -0.44.

`COC(=O)c1ccc(NC(=O)NS(=O)(=O)c2ccc(C)cc2)cc1` gave a z-score of 0.167.

For `CCOC(=O)N1CCN(C(=O)C2CCN(S(=O)(=O)c3cc(Cl)ccc3Cl)CC2)CC1`, the z-score was 0.678.

With `CC(CC(=O)O)CC(=O)Nc1ccccc1C(=O)O` (stereo unspecified), the z-score was -0.0813.

`COCC(C)n1c(C)cc(C(=O)CN2C(=O)NC3(CCCCC3C)C2=O)c1C` (stereo unspecified): the z-score is -0.246.

For `Cc1ccccc1OCCN1C(=O)C(=O)c2cccc(C)c21`, the z-score was -0.142.

Take `COCCn1c(SCc2ccc(C(=O)OC)o2)nc2ccccc2c1=O`: the z-score is -0.0699.

`O=C(/C=C/c1ccc2c(c1)OCO2)NCCSCc1c(Cl)cccc1Cl`: the z-score is -0.204.

For the compound `CS(=O)(=O)N(CC(=O)NC1CC2CCC1C2)c1cccc(C(F)(F)F)c1` (stereo unspecified), the z-score was -0.272.

Regarding `COc1cccc(CN(CC(=O)NC2CCCC2)C(=O)CCC(=O)Nc2cc(C)on2)c1`, the z-score was 0.081.

With `CCCOC(=O)CSC1=C(C#N)C(c2ccc3c(c2)OCO3)CC(=O)N1` (stereo unspecified), the z-score was -0.1.

With `Cc1c(C(=O)Nc2cccc(Cl)c2)c2ccccn2c1CCc1ccncc1`, the z-score is -0.336.

With `COc1ccc(CNC(=O)c2ccc(-c3ccccc3)cc2)cc1`, the z-score is -0.113.

In turn, `O=C(COC(=O)c1cccc(S(=O)(=O)N2CCOCC2)c1)Nc1ccc2c(c1)OCO2` registered a z-score of 0.39.

For the compound `CN(Cc1cnn(C)c1)C(=O)C1CCCCC1C(=O)O` (stereo unspecified), the z-score was -0.131.

Regarding `Cc1cccc(-n2c(=O)[nH]c3c(C(N)=O)nc(CC(C)C)nc32)c1`, the z-score is -0.133.

In the case of `COc1ccccc1Cn1nnc2c(=O)[nH]c(C3CCN(C(=O)c4ccccc4Cl)CC3)nc21`, the z-score was -1.41.

`CCOC(=O)CSc1n[nH]c(NC(=O)c2cccc(C)c2)n1` came in with a z-score of 2.67.

Regarding `CCc1ccc(OCC(=O)N/N=C/c2cc([N+](=O)[O-])ccc2N2CCCCCC2)cc1`, the z-score was -0.107.

With `CNC(=O)NC(=O)COC(=O)c1ccc(-n2c(C)ccc2C)cc1`, the z-score was -0.452.

Take `O=C(CNC(=O)c1ccncc1)N/N=C/c1cc(Br)ccc1O`: the z-score is -0.138.

For the compound `CN1CCN(CCC(=O)Nc2cccc(F)c2)CC1`, the z-score was determined as 1.24.

As for `Cc1cc(Cl)ccc1OC(C)C(=O)NCCc1ccc2c(c1)OCCO2` (stereo unspecified), the z-score is -0.267.

For `C[N+]1(CCCCCCC(=O)/C=N/O)CCCCCC1`, the z-score was -0.0109.

With `COc1cc(CN2CCN(c3ccc(C)cc3)CC2)cc([N+](=O)[O-])c1O`, the z-score is -0.348.

Regarding `CCOC(=O)N1CCN(C(=O)c2oc(=O)c3ccccc3c2-c2ccc(C)cc2)CC1`, the z-score is -0.945.

With `CCOc1ccc(-c2nnc(-c3ccccc3)o2)cc1`, the z-score was -0.195.

In the case of `O=C(Nc1cccc2ncccc12)c1cccnc1`, the z-score was 0.116.
